Experimental data taken from the antibiotic and cytotoxicity screens of Wong et al. (2023).
The list shows a part of the results.

What was measured:
HSkMC = human skeletal muscle cells; assay: cytotoxicity call (relative viability < 0.9); details: 10 µM
HepG2 = assay: cytotoxicity call (relative viability < 0.9); details: 10 µM
S. aureus RN4220 = assay: growth inhibition call (relative growth <= 0.2); details: 50 µM

SMILES	cytotoxicity call (HSkMC)	cytotoxicity call (HepG2)	growth inhibition call (S. aureus RN4220)
C[C@H]1CN([C@@H](C)CO)C(=O)Cc2cc(NS(=O)(=O)c3cn(C)cn3)ccc2O[C@H]1CN(C)S(=O)(=O)c1cn(C)cn1	inactive	inactive	inactive
C[C@@H]1CCCCO[C@H](CN(C)S(=O)(=O)c2ccc(Cl)cc2)[C@H](C)CN([C@@H](C)CO)C(=O)c2cc(NC(=O)c3ccccc3)ccc2O1	inactive	inactive	inactive
CC(C(=O)O)c1ccc(CC2CCCC2=O)cc1 (centres undefined)	inactive	inactive	inactive
Nc1ccc(-n2cccc2)cc1Cl	inactive	inactive	inactive
CC(=O)c1ccccc1OC[C@@H](O)CN(CCO)CCO	inactive	inactive	inactive
C[C@H](CO)N1C[C@H](C)[C@@H](CN(C)C(=O)Nc2cccc3ccccc23)OCCCC[C@H](C)Oc2ccc(NS(=O)(=O)c3cccs3)cc2C1=O	active	active	inactive
COc1ccc(C#Cc2ccc3c(c2)O[C@@H](CN(C)C(C)=O)[C@@H](C)CN([C@@H](C)CO)S3(=O)=O)cc1	inactive	inactive	inactive
CC(C)Cn1c(N)cc(=O)n(C)c1=O	inactive	inactive	inactive
Cn1cnc(CCNC(=O)C[C@@H]2CC[C@@H]3[C@H](COC[C@@H](O)CN3C(=O)Nc3ccc(Cl)cc3)O2)c1	inactive	inactive	inactive
C[C@@H]1CCCCO[C@H](CN(C)Cc2ccc(C(=O)O)cc2)[C@H](C)CN([C@@H](C)CO)C(=O)c2cc(NC(=O)C3CCCCC3)ccc2O1	inactive	inactive	inactive
C[C@@H]1CN([C@@H](C)CO)C(=O)c2cc(C#CC3(O)CCCC3)cnc2O[C@H]1CN(C)C(=O)C1CCCCC1	inactive	inactive	inactive
O=C(NCc1ccccc1)[C@@H]1c2ccccc2C(=O)N(CC23CC4CC(CC(C4)C2)C3)[C@H]1c1ccc(CO)cc1	inactive	inactive	inactive
C[C@@H]1CN([C@@H](C)CO)C(=O)c2cc(NC(=O)Nc3ccc4c(c3)OCO4)ccc2O[C@H]1CN(C)C(=O)Nc1cccc2ccccc12	inactive	inactive	inactive
C=CCOC(=O)[C@H]1[C@@H]2C(=O)O[C@@H](c3ccccc3)[C@@H](c3ccccc3)N2[C@@H](c2ccc(OCCOC(=O)[C@@H]3C[C@@H]4C(=O)N5CCC[C@H]5C(=O)N4[C@@H]3c3ccc(O)cc3)cc2)[C@]12C(=O)Nc1ccccc12	inactive	inactive	inactive
C[C@@H]1CN([C@H](C)CO)C(=O)c2cc(NS(=O)(=O)c3ccccc3)ccc2O[C@@H]1CN(C)C(=O)Nc1cccc2ccccc12	inactive	active	inactive
C[C@@H]1CN([C@H](C)CO)C(=O)c2cc(C#CC3CCCCC3)cnc2O[C@@H]1CN(C)C(=O)Cc1ccccn1	inactive	inactive	inactive
C[C@H]1CN([C@@H](C)CO)C(=O)CCCn2nncc2CO[C@@H]1CN(C)S(=O)(=O)c1ccc(-c2ccccc2)cc1	inactive	inactive	inactive
COc1ccc(NC(=O)N(C)C[C@@H]2Oc3cc(Br)ccc3S(=O)(=O)N([C@H](C)CO)C[C@H]2C)cc1	inactive	inactive	inactive
O=C(c1cnn2c1OCCC2)N1CC(O)C1	inactive	inactive	inactive
COc1ccc(S(=O)(=O)Nc2cccc3c2O[C@@H](CN(C)S(=O)(=O)c2cccs2)[C@H](C)CN([C@@H](C)CO)C3=O)cc1	inactive	inactive	inactive
CC(C)CN1C(=O)[C@@]2(c3ccc([N+](=O)[O-])cc3)CC(=O)N(CC34CC5CC(CC(C5)C3)C4)[C@@H]2c2ccc(CO)cc21	inactive	inactive	inactive
COCCN1CCN(C)C2(CCN(C(=O)[C@H]3CCCO3)CC2)C1=O	inactive	inactive	inactive
Cc1cc(C(=O)Nc2cccc3c2O[C@@H](CN(C)C(=O)Nc2ccccc2)[C@@H](C)CN([C@H](C)CO)C3=O)n(C)n1	inactive	inactive	inactive
Clc1ccc(C(c2ccc(Cl)cc2)[n+]2ccn(C[C@@H](OCc3ccc(Cl)cc3Cl)c3ccc(Cl)cc3Cl)c2)cc1	active	active	inactive
C[C@H](CO)N1C[C@H](C)[C@@H](CN(C)C(=O)Nc2cccc3ccccc23)Oc2c(NS(=O)(=O)c3ccc(Cl)cc3)cccc2C1=O	inactive	inactive	inactive
Cc1ccc(S(=O)(=O)N(C)C[C@@H]2Oc3ccc(NC(=O)Nc4cccc5ccccc45)cc3CC(=O)N([C@@H](C)CO)C[C@H]2C)cc1	inactive	inactive	inactive
CC(C)NC(=O)Nc1ccc2c(c1)CC(=O)N([C@@H](C)CO)C[C@H](C)[C@H](CN(C)S(=O)(=O)c1ccc(Cl)cc1)O2	inactive	inactive	inactive
CN1C(=O)c2cc(NC(=O)c3cnccn3)ccc2OC[C@H]2O[C@@H](CC(=O)N[C@@H]3CCN(Cc4ccccc4)C3)CC[C@@H]21	inactive	inactive	inactive
